For 42 compounds, phenotypic hit results are on record in the supplement of paper PMC2702839.

Counter-ions that a name gives are not always drawn. The list shows a part of the results.

The test has as its system Schistosoma mansoni schistosomula. The test can be described thus: phenotypic hit in primary schistosomula screen (any phenotype vs DMSO control) (binary (1 = hit, 0 = no phenotype)); higher = active (phenotype induced). The note with it: 1 µM; time (d): 7.
For `CC(=O)OC1CN2CCC1CC2` (configuration not stated) [aceclidine hydrochloride], the phenotypic hit was inactive: 0. `CC(CCc1ccccc1)NC(C)C(O)c1ccc(O)cc1` (configuration not stated) [Nylidrin hydrochloride]: the phenotypic hit was inactive: 0.

Take `COP(=S)(OC)Oc1ccc([N+](=O)[O-])cc1` [methyl parathione]: the phenotypic hit was inactive: 0. `C=C(C)c1cc2cc(C(C)=O)c(O)cc2o1` [euparin]: the phenotypic hit is inactive: 0. Consider `c1ccc2nc(N3CCNCC3)ccc2c1` [Quipazine dimaleate], for which the phenotypic hit is inactive: 0.

Take `CC(C)OC(=O)Nc1cccc(Cl)c1` [chlorpropham]: the phenotypic hit is inactive: 0. In the case of `CN1C[C@H](C(=O)N[C@]2(C)O[C@@]3(O)[C@@H]4CCCN4C(=O)[C@H](Cc4ccccc4)N3C2=O)C[C@@H]2c3cccc4[nH]cc(c34)C[C@H]21` [Dihydroergotamine methanesulfonate], the phenotypic hit was inactive: 0.

As for `COc1ccc(Cc2nccc3cc(OC)c(OC)cc23)cc1OC` [Papaverine hydrochloride], the phenotypic hit is inactive: 0. The figure for `COc1cc2c(c(OC)c1OC)-c1ccc(=O)c(O)cc1[C@@H](NC(C)=O)CC2` [colchiceine] is inactive: 0; for `CCC1(CC)C(=O)C=CNC1=O` [pyrithyldione] it is inactive: 0; for `COc1cc2c(cc1OC)[C@@]13CCN4CC5=CCO[C@H]6CC(=O)N2[C@H]1[C@H]6[C@H]5C[C@H]43` [brucine] it is inactive: 0. The figure for `CCOCN(C(=O)CCl)c1c(C)cccc1CC` [acetochlor] is inactive: 0; for `COP(=O)(OC)OC(Br)C(Cl)(Cl)Br` (configuration not stated) [naled] it is inactive: 0; for `CC(C)(C)NCC(O)c1cc(Cl)c(N)c(Cl)c1` (configuration not stated) [clenbuterol hydrochloride] it is inactive: 0. Regarding `C=C(C)[C@H]1Cc2c(ccc3c2O[C@@H]2COc4cc(OC)c(OC)cc4[C@@H]2C3=O)O1` [rotenone], the phenotypic hit was inactive: 0.

Turning to `COC(=O)C1=CCCN(C)C1` [Arecoline hydrobromide], the phenotypic hit was active: 1. On to `NCC(CC(=O)O)c1ccc(Cl)s1` (configuration not stated) [4-amino-3- (5-chlorothien-2-yl)butanoic acid], for which the phenotypic hit is inactive: 0. The value for `COc1cc2c(cc1OC)[C@H](C)NCC2` [salsolidine] was inactive: 0. For `CC1=C2[C@H]3OC(=O)[C@@H](C)[C@@H]3CC[C@@]2(C)C=CC1=O` [santonin], the phenotypic hit was inactive: 0.

Regarding `OCC(O)Cc1ccc2c(c1)OCO2` (configuration not stated) [safrolglycol], the phenotypic hit is inactive: 0. On to `CCC(N)C(O)c1ccc(O)c(O)c1` (configuration not stated) [ethylnorepinephrine hydrochloride], for which the phenotypic hit was inactive: 0. As to `CC(=O)O[C@H]1C[C@H](O[C@H]2[C@@H](O)C[C@H](O[C@H]3[C@@H](O)C[C@H](O[C@H]4CC[C@@]5(C)[C@H](CC[C@@H]6[C@@H]5C[C@@H](O)[C@]5(C)[C@@H](C7=CC(=O)OC7)CC[C@]65O)C4)O[C@@H]3C)O[C@@H]2C)O[C@H](C)[C@H]1O[C@@H]1O[C@H](CO)[C@@H](O)[C@H](O)[C@H]1O` [lanatoside c], the phenotypic hit was inactive: 0. On to `O=C1C=C2C(=CCOC2O)O1` (configuration not stated) [patulin], for which the phenotypic hit is active: 1. Consider `COc1ccc(CCN2CCC(Nc3nc4ccccc4n3Cc3ccc(F)cc3)CC2)cc1` [astemizole], for which the phenotypic hit is inactive: 0. The figure for `O=C1CCCN1CC#CCN1CCCC1` [oxotremorine] is inactive: 0. The figure for `CO[C@@H]1C[C@@H](C[C@H]2CC[C@H](C)[C@H]([C@@H](C)C(=O)O)O2)O[C@]2(O[C@](C)([C@H]3CC[C@@](C)([C@@H]4O[C@@H]([C@H]5O[C@@](O)(CO)[C@H](C)C[C@@H]5C)C[C@@H]4C)O3)C[C@H]2C)[C@@H]1C` [nigericin sodium] is active: 1; for `COC1C(O)C(O[C@H]2CC[C@]3(C=O)C4C(CC[C@]3(O)C2)[C@@]2(O)CC[C@H](C3=CC(=O)OC3)[C@@]2(C)C[C@H]4OC(C)=O)OC(C)C1OC(C)=O` (some centres not stated) [sarmentoside b] it is inactive: 0. The figure for `CCOP(=S)(OCC)SCCSCC` [disulfoton] is inactive: 0; for `c1cncc(C2=NCCC2)c1` [myosmine] it is inactive: 0. Consider `O=[N+]([O-])c1cc([As](=O)(O)O)ccc1O` [roxarsone], for which the phenotypic hit is inactive: 0. Take `CC(=O)C1CCC2C3CCC4C[C@H](O)CCC4(C)C3C[C@H](O)C12C` (stereo partly drawn) [dihydroxy (3alpha,12alpha)pregnan-20-one]: the phenotypic hit was inactive: 0. The value for `CCc1cccc(CC)c1N(COC)C(=O)CCl` [alachlor] was inactive: 0; that for `C[C@]12C=CC(=O)C=C1CC[C@@H]1[C@@H]2CC[C@]2(C)C(=O)CC[C@@H]12` [androsta-1,4-dien-3,17-dione] was inactive: 0; that for `CCN1C[C@]2(COC)[C@H](O)C[C@H](OC)[C@@]34[C@@H]5C[C@@]6(O)[C@H](OC(=O)c7ccccc7)[C@@H]5[C@@](OC(C)=O)([C@@H]([C@H](OC)[C@H]23)[C@@H]14)[C@@H](O)[C@@H]6OC` [aconitine] was inactive: 0. Regarding `CC(=O)CC1CCCCN1` (configuration not stated) [pelletierine hydrochloride], the phenotypic hit was inactive: 0.

`CC[C@@]1(O)C[C@H](O[C@H]2C[C@H](N(C)C)[C@H](O)[C@H](C)O2)c2c(cc3c(c2O)C(=O)c2c(O)ccc(O)c2C3=O)[C@H]1C(=O)OC` [pyrromycin]: the phenotypic hit is active: 1. `NCCc1ccc(O)cc1` [4-Hydroxyphenethylamine hydrochloride]: the phenotypic hit was inactive: 0.

As to `C[C@]12CC[C@H](O)C[C@@H]1CC[C@@H]1[C@@H]2CC[C@]2(C)C(=O)CC[C@@H]12` [epiandrosterone], the phenotypic hit is inactive: 0. The figure for `C[N+]1(C)[C@@H]2C[C@@H](OC(=O)[C@H](CO)c3ccccc3)C[C@H]1[C@@H]1O[C@@H]12` [methscopolamine bromide] is inactive: 0; for `CCn1cc(C(=O)O)c(=O)c2cc3c(cc21)OCO3` [oxolinic acid] it is inactive: 0. As to `CO[C@H]1C[C@H](O[C@H]2CC[C@]3(C=O)[C@H]4CC[C@]5(C)[C@@H](C6=CC(=O)OC6)CC[C@]5(O)[C@@H]4CC[C@]3(O)C2)O[C@H](C)[C@H]1O` [cymarin], the phenotypic hit is inactive: 0.

In the case of `C[C@@H](N)[C@@H](O)c1ccccc1` [1r,2s-phenylpropylamine], the phenotypic hit is inactive: 0.
